Hit rate of the full screen: of about 45,000 compounds, about 65 (0.1%) were called active. Calls come from the whole dose curve; as a rule, active = well fitted activation curve with a large enough effect; inconclusive = small, poorly fitted or top-dose-only effect; inactive = no such curve, though single readings can be large or run the other way. The list shows a part of the results.
target: Galactocerebrosidase (Homo sapiens) (UniProt P54803); experiment: A Novel Cell-Based Assay to Identify Small Molecules for B -Galactocerebrosidase; conditions: 145M-Twi-hGALC-G270D cells, HMU-beta-Gal fluorescence, 48 h; series mostly up to 57.5 µM; activation: at the top concentration; note: 0% is about no effect; nearly all actives have a fitted effect of over 65% in size
Sequence of UniProt P54803 (P54803 whole entry, looked up): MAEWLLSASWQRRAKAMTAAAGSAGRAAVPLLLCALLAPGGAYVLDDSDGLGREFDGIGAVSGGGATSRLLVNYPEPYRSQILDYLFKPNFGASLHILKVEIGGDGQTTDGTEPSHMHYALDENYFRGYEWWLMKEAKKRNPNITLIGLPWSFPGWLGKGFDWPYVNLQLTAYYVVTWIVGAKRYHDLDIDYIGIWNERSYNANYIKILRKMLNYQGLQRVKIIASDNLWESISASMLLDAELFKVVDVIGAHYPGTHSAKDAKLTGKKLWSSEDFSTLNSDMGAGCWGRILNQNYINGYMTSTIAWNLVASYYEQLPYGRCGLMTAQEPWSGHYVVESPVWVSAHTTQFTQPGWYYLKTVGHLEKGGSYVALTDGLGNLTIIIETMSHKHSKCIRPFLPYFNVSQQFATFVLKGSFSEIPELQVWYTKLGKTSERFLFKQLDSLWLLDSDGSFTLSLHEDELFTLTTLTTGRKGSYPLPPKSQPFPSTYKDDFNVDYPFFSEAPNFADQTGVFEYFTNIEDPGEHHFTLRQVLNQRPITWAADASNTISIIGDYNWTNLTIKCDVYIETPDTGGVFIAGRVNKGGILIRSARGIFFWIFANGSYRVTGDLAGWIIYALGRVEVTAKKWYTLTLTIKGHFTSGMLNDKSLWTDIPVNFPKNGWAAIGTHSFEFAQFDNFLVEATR
Procedure, shortened: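 qHTS, 1536-well; 145M-Twi-hGALC-G270D cells (WT line also made) in DMEM/F12 + 10% FBS; compound incubation on live cells; HMU-β-gal 0.1 mM final, pH 5.2, NaTC; carbonate stop; fluorescence increase = enhanced residual activity.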

activation, inactive:
CCc1nn(CC(=O)NC(C)c2ccccc2)c(=O)c2cc3sccc3n12 (configuration not stated) -19.9%
Cc1cc(C)cc(OCC(=O)NCC2(N(C)C)CCCCC2)c1 -10.4%
Cc1ccc(C)c(N2CCN(c3cc(C)nc4c(-c5ccc(Cl)cc5)c(C)nn34)CC2)c1 -20%
O=C(COc1ccccc1-c1nc(-c2ccccc2)no1)Nc1ccccc1[N+](=O)[O-] -10.7%
CCCc1cc(=O)n2[nH]c(NCc3ccccc3OC)nc2n1 -9.68%
Cc1ccc(S(=O)(=O)N2CCC(c3ccncc3)CC2)c(C)c1 -5.65%
CC(C)(C)CC(C)(C)c1ccc(OCCOCC[N+](C)(C)Cc2ccccc2)cc1 -1.92%
Cc1cc(C)cc(Nc2sc(C(=O)c3ccccc3)c(N)c2S(=O)(=O)c2ccccc2)c1 -5.82%
CCOC(=O)c1c(C)oc2nc(C)nc(NCc3ccccc3OCC)c12 -6.32%
CCOC(=O)c1ccc(NC(=O)C(Cc2ccccc2)NS(=O)(=O)c2ccc(Br)s2)cc1 (configuration not stated) -16.7%
COc1cc(OC)c(NS(=O)(=O)c2ccc3c(c2)NC(=O)CCS3)cc1Cl -27.5%
Cc1ccc(S(=O)(=O)NCCSc2nnnn2-c2ccc(Cl)c(C(=O)O)c2)cc1 -5.35%
O=C(NCc1ccccc1Cl)C1CCCN(c2ncnc3onc(-c4ccc(F)cc4)c23)C1 (configuration not stated) -15.5%
CCCc1nc2ccccc2n2c(-c3cccc(C)c3)c3c(=O)n(C)c(=O)n(C)c3c12 -16.1%
CCOc1ccc(-c2cn3c(n2)sc2cc(C(=O)NCCCc4ccccc4)ccc23)cc1 -12.5%
Cc1nc2nc(SCc3ccc(F)cc3Cl)nn2c(C)c1Cc1ccccc1 1.99%
CCCCOc1ccc(C(=O)CCN2CCCCC2)cc1 -13.4%
CCC1CN(C(=O)N2CCC(C(=O)Nc3cc(C)ccc3C)CC2)c2ccccc2O1 (configuration not stated) -40%
Cc1cccc(-c2cc(NC(=O)C(C)(C)C)n(-c3ccccc3)n2)c1 -11.9%
COc1cc(C2c3c(oc4ccccc4c3=O)C(=O)N2c2nncs2)cc(OC)c1OC (configuration not stated) 8.83%
CCCCN(C)CCCNC(=O)CN1C(=O)COc2ccc(S(=O)(=O)N3CCOCC3)cc21 -8.84%
Cc1nc2nc(-c3ccc(Cl)cc3Cl)nn2c(C)c1CCC(=O)Nc1ccc(F)cc1 -8.15%
COc1cccc(N2CC(NC(=O)c3ccc4c(c3)OCO4)CC2=O)c1 (configuration not stated) -7.77%
COc1ccc(-c2c(C)nn3c4c(cnc23)C(=O)CC(c2ccccc2)C4)cc1 (configuration not stated) 7.02%
O=C(CS(=O)(=O)c1cccc2nsnc12)NCc1ccc(Cl)cc1 -27.4%
CC(NC(=O)c1ccc(Nc2nc3ccccc3n3nnnc23)cc1)c1ccccc1 (configuration not stated) -8.12%
Cc1cc(C)c(NC(=O)CCCN2C(=O)COc3ccc(C)cc32)c(C)c1 -8.37%
COc1ccccc1N1CCN(S(=O)(=O)c2c(C)sc3ncn(CC(=O)Nc4ccc(C(F)(F)F)cc4)c(=O)c23)CC1 -3.38%
CC(=O)c1ccc(NC(=O)C2CCCN(S(=O)(=O)c3ccc4c(c3)CCCN4C(C)=O)C2)cc1 (configuration not stated) -19.2%
O=C(Cn1ccc2cc(S(=O)(=O)N3CCCCC3)ccc21)NCCc1ccc(Cl)cc1 -4.78%
CCOC(=O)c1c(NC(=O)Cc2coc3cc(C)ccc23)sc2c1CCCC2 -6.75%
O=C(O)Cc1sc(Nc2ccccc2Cl)nc1-c1ccccc1 -13.7%
CCc1ccc(NC(=O)c2cc3nc(-c4ccc(C)cc4)cc(C(F)(F)F)n3n2)cc1 -11.4%
COC(=O)c1sc(NC(=O)c2cc3nc(-c4ccc(Br)cc4)cc(C(F)(F)F)n3n2)c(C(=O)OC)c1C -13.5%
COc1ccc(CCNC(=O)CN(c2cc(C(F)(F)F)ccc2Cl)S(C)(=O)=O)cc1 7%
Cc1ccc(OCC(=O)Nc2ccccc2C(=O)OCc2cc(=O)n3ccsc3n2)cc1C -16.8%
COc1ccccc1Nc1nn2c(=O)c3ccc(C(=O)N4CCCCC4)cc3nc2s1 -8.33%
Cc1cccc(C)c1N1CC(c2nc3ccccc3n2CC(=O)OC(C)C)CC1=O (configuration not stated) -14.4%
CCOC(=O)c1cc(S(=O)(=O)N2CCN(c3cc(C)ccc3C)CC2)[nH]n1 -4.02%
COC(=O)c1ccc(NC(=O)C(=O)NCCc2sc(-c3cccc(F)c3)nc2C)cc1 -0.397%
COc1cc(-c2ccno2)ccc1S(=O)(=O)N1CCN(c2ccccc2F)CC1 0.339%
CCCN(CCC)C(=O)CSc1nc2ccccc2c(=O)n1Cc1ccco1 -9.18%
COc1ccc(CC(=O)NCc2nc3cccnc3n2Cc2ccc(C)cc2)cc1 2.79%
COc1ccc(NC(=O)CSc2nc3cc(OC)c(OC)cc3c3nc(-c4ccccc4)nn23)cc1Cl -19.7%
Fc1ccc(-c2cc(-c3ccccc3)c3c(n2)-c2cc(F)ccc2OC3)cc1 -4.99%
Cc1ccc(-c2c(C)n3c4c(=O)n(C)c(=O)n(C)c4nc3n2-c2cccc(O)c2)cc1 -16.3%
CC1CCN(S(=O)(=O)c2cc3c4c(c2)CC(=O)N4CCC3)CC1 -14.2%
COc1ccc(S(=O)(=O)NCC(c2ccco2)N2CCOCC2)cc1 (configuration not stated) 10.3%
Cc1cc(C)cc(NC(=O)CSc2oc(-c3cccs3)nc2S(=O)(=O)c2ccccc2)c1 -27.4%
CC(=O)c1ccc(NC(=O)c2cn3c4c(ccc(Cl)c4c2=O)OC(C)C3)cc1 (configuration not stated) -13.7%
CCC(=O)N1c2ccc(S(=O)(=O)N3CCN(c4ccccc4)CC3)cc2CC1C (configuration not stated) -10.2%
COc1cc2c(=O)n(CCC(=O)NCC3CCCO3)c(=O)n(CC(=O)Nc3ccc(C)cc3)c2cc1OC (configuration not stated) 4.88%
Cc1ccc(S(=O)(=O)C(CNC(=O)C(=O)NCc2ccc(Cl)cc2)c2cccs2)cc1 (configuration not stated) -2.41%
Cc1ccc(C(=O)NCCn2c(C)cc3ccccc32)cc1C -7.91%
Nc1ccc2c(c1)CN1C(=O)c3ccccc3C1=N2 -11.3% [at 23.8 µM]
Cc1cc(C)cc(-n2nnc(-c3nc(-c4ccc5c(c4)OCO5)no3)c2C)c1 -12.3%
COc1cccc(C(=O)NCCSc2c(-c3ccc(F)cc3)[nH]c3ccccc23)c1OC -10.3%
Cc1ccc(CNC(=O)C2CCCN(S(=O)(=O)c3ccc4c(c3)oc(=O)n4C)C2)cc1 (configuration not stated) -8.09%
O=C1CN(C(=O)c2ccc(S(=O)(=O)N3CCCCC3)cc2)C(c2ccc(F)cc2)c2cc(F)ccc2N1 (configuration not stated) -27.1%
CC(Oc1ccc(F)cc1)C(=O)NCC1(N(C)C)CCCCC1 (configuration not stated) -2.94%
Cc1c(NC(=O)c2ccc(OC(C)C)cc2)cccc1-c1nc2ncccc2o1 -9.57%
Cc1ccc(S(=O)(=O)c2cn(CC(=O)Nc3ccc(C)c(Cl)c3)c3ccc(C)cc3c2=O)cc1 -8.47%
Cc1ccc(NCc2cccn2-c2nnc(N3CCC(C(=O)NC(C)C)CC3)s2)cc1 5.05%
COc1ccc(-c2cn3nc(N4CCC(C(=O)NCc5ccccc5F)CC4)sc3n2)cc1 -3.61%
Cc1ccc(S(=O)(=O)N2CCCc3cc(NS(=O)(=O)c4ccc(F)c(C)c4)ccc32)cc1 -20.9%
COc1ccc(-c2cc(C(F)(F)F)c(C#N)c(SCC(=O)Nc3ccc(F)cc3)n2)cc1 -4.62%
CCCS(=O)(=O)Nc1cc(-c2cn3cccc(C)c3n2)ccc1C -15.4%
CC(C)Oc1ccc(CNC(=O)CCCn2c(=O)c3cccn3c3ccccc32)cc1 -35.3%
CCCC(O)C(CC)CO (configuration not stated) -19.4%
CC(CN(C)C)CN1c2ccccc2CCc2ccccc21 (configuration not stated) -11.2%
CCc1ccc(CNC(=O)c2ccc3c(c2)N=C(C)c2cc(C)ccc2S3)cc1 -13.9%
CN(C)CCNC(=O)c1ccc(-n2c(-c3ccccc3)cc3c2CCCC3)cc1 1.2%
COP(=O)(OC)OC(c1ccc(Cl)cc1)P(=O)(OC)OC (configuration not stated) -12.7%
CCCNC(=O)c1ccc2c(c1)ncn2-c1ccc(C)cc1C -14.4%
COc1ccc(NC(=O)Cn2c(=O)oc3cc(S(=O)(=O)NC4CCCC4)ccc32)cc1OC 2.02%
COc1ccc(CNc2ncnc3onc(C)c23)cc1 -16.3%
CCOC(=O)c1c(NC(=O)CS(=O)(=O)c2ccc(C)cc2)sc2c1CCCCC2 -24.7%
Cc1ccc(C(C)C)c(OCC(=O)Nc2cccc(NC(=O)c3ccco3)c2)c1 -2.33%
CC1=Nc2cc(C(=O)NCCc3ccc(Cl)cc3)ccc2Sc2ccc(C)cc21 -23.7%
CCC(CC)C(=O)NC1CC(=O)N(c2ccc3c(c2)OCCO3)C1 (configuration not stated) 1.78%
Cc1ccc(-c2ccc(=O)n(Cc3cc(C)ccc3C)n2)cc1 -2.96%
Cc1ccc(-c2nc3cccnc3s2)cc1NC(=O)C(C)C -8.67%
Cc1nc(-c2ccccc2)sc1-c1ccc(SCC(=O)NCc2ccc(F)cc2)nn1 1.87%
Cn1c(=O)c2c(SCC(=O)N3CCc4ccccc43)nc(-c3ccccc3Cl)nc2n(C)c1=O -11.4%
CCOc1ccc(-n2c(CCC(=O)O)ccc2-c2ccc(Br)cc2)cc1 -12.8%
COC(=O)C(Cc1c[nH]c2ccccc12)NC(=O)COc1ccc(Cl)cc1Cl (configuration not stated) -11%
CCOc1ccc(-n2c(SCC(=O)N3CCCC3)nc3c([nH]c4ccccc43)c2=O)cc1 -12%
Cc1cccc(NS(=O)(=O)c2ccc3[nH]c(=O)ccc3c2)c1C 26.8%
CCc1ccc(CNC(=O)CCSCc2ccccc2F)cc1 -9.15%
COc1cccc(C2=CC(c3ccc(OC)c(OC)c3OC)n3ncnc3N2)c1 (configuration not stated) -12.2%
O=C(CSc1nc(-c2ccccc2)no1)N1CCN(c2ccccc2F)CC1 5.51%
O=C(Cn1c(=O)nc(-c2ccccc2)c2ccccc21)Nc1ccc(Cl)c(C(F)(F)F)c1 -7.09%
CCN(C(=O)Cc1nc(-c2ccc(OC)cc2)no1)c1cccc(Cl)c1 -5.53%
COc1ccc(C(=O)c2cn(CC(=O)Nc3ccc4c(c3)OCCO4)c3ccc(OC)cc3c2=O)cc1 -4.89%
COc1ccccc1OCCn1c(-c2ccc(Cl)cc2)nc2ccccc2c1=O -5.21%
Cc1oc2ccc(O)c(CN(C)Cc3ccccc3)c2c1C(=O)Nc1cccc(C(F)(F)F)c1 2.55%
COc1cc(NC(=O)Cn2c(=O)oc3cc(S(=O)(=O)N4CCCCCC4)ccc32)cc(OC)c1 -15.6%

Source: PubChem BioAssay AID1159614 (National Center for Advancing Translational Sciences (NCATS), 2016)
